Test results as given in the antibiotic and cytotoxicity screens of Wong et al. (2023).
This is one part of the list.

Each molecule was assayed on HSkMC (human skeletal muscle cells) (assay: cytotoxicity call (relative viability < 0.9)). Conditions: 10 µM.

Row | SMILES | cytotoxicity call
1 | C[C@H]1CCCCO[C@H](CN(C)Cc2ccccc2)[C@@H](C)CN([C@@H](C)CO)C(=O)c2cc(NC(=O)Nc3ccccc3)ccc2O1 | inactive
2 | Cc1cnc(CNC(=O)c2c(=O)c3ccc(N4CCCN(C)CC4)nc3n3c2sc2ccccc23)cn1 | inactive
3 | C[C@@H]1CN([C@H](C)CO)C(=O)c2cc(NS(=O)(=O)c3ccc(F)cc3)ccc2O[C@@H]1CN(C)C(=O)Nc1ccc(C(F)(F)F)cc1 | inactive
4 | COc1ccc(NC(=O)Nc2ccc3c(c2)C(=O)N([C@@H](C)CO)C[C@@H](C)[C@H](CN(C)C(=O)Nc2ccccc2)OCCCC[C@H](C)O3)cc1 | inactive
5 | COc1ccc(NC(=O)Nc2ccc3c(c2)C(=O)N([C@H](C)CO)C[C@H](C)[C@@H](CN(C)S(C)(=O)=O)O3)cc1 | inactive
6 | C[C@H](CO)N1C[C@H](C)[C@H](CN(C)Cc2ccc(C(F)(F)F)cc2)OCc2ccccc2-c2c(n(C)c3ccccc23)C1=O | inactive
7 | CC(C)(C)OC(=O)C[C@H]1CC=CC[C@@H](CC(=O)NCCO)C(=O)N[C@@H](Cc2ccccc2)COC1=O | inactive
8 | C[C@H]1CN([C@@H](C)CO)C(=O)CCCn2cc(nn2)CO[C@H]1CN(C)C(=O)c1ccc(N2CCN(C)CC2)cc1 | inactive
9 | Cc1noc(C)c1S(=O)(=O)N(C)C[C@@H]1Oc2ccc(NC(=O)Cn3cnnn3)cc2CC(=O)N([C@@H](C)CO)C[C@@H]1C | inactive
10 | Cc1ccc(S(=O)(=O)N(C)C[C@@H]2Oc3ccc(NC(=O)CCCN(C)C)cc3CC(=O)N([C@H](C)CO)C[C@H]2C)cc1 | inactive
11 | C[C@H]1CCCCO[C@@H](CN(C)C(=O)c2ccncc2)[C@@H](C)CN([C@@H](C)CO)C(=O)c2cc(NS(=O)(=O)c3ccc(Cl)cc3)ccc2O1 | inactive
12 | COc1cccc(OC)c1C(=O)NN | inactive
13 | C[C@H](CO)N1C[C@H](C)[C@H](CN(C)C(=O)Nc2ccc(F)cc2)OCCCC[C@H](C)Oc2ccc(NC(=O)CCCN(C)C)cc2C1=O | inactive
14 | COc1ccc(NC(=O)N(C)C[C@H]2Oc3ccc(NS(=O)(=O)c4cn(C)cn4)cc3CC(=O)N([C@H](C)CO)C[C@@H]2C)cc1 | inactive
15 | C[C@H](CO)N1C[C@H](C)[C@@H](CN(C)S(=O)(=O)c2cn(C)cn2)Oc2c(NC(=O)Nc3ccccc3)cccc2C1=O | inactive
16 | COc1ccc(NC(=O)Nc2cccc3c2O[C@H](CN(C)S(C)(=O)=O)[C@@H](C)CN([C@H](C)CO)C3=O)cc1 | inactive
17 | C[C@H]1CN([C@@H](C)CO)S(=O)(=O)c2ccc(C#Cc3ccccc3F)cc2O[C@@H]1CN(C)C(=O)c1ccc2c(c1)OCO2 | inactive
18 | COc1cccc(NC(=O)N(C)C[C@@H]2Oc3cc(C#CC4(O)CCCC4)ccc3S(=O)(=O)N([C@@H](C)CO)C[C@H]2C)c1 | inactive
19 | C=CC(C)(O)CCC=C(C)C (stereo not given) | inactive
20 | Cc1noc(C)c1NC(=O)Nc1ccc2c(c1)C(=O)N([C@H](C)CO)C[C@@H](C)[C@H](CN(C)Cc1ccc(Oc3ccccc3)cc1)O2 | inactive

Row | SMILES | cytotoxicity call
21 | Cc1ccc(S(=O)(=O)N(C)C[C@H]2OCCCC[C@@H](C)Oc3ccc(NC(=O)NC4CCCCC4)cc3C(=O)N([C@@H](C)CO)C[C@H]2C)cc1 | inactive
22 | Cc1ccc(S(=O)(=O)N(C)C[C@H]2OCCCC[C@@H](C)Oc3ccc(NC(=O)Cc4ccccc4)cc3C(=O)N([C@@H](C)CO)C[C@@H]2C)cc1 | inactive
23 | CC(C)NC(=O)Nc1ccc2c(c1)CC(=O)N([C@@H](C)CO)C[C@H](C)[C@@H](CN(C)Cc1ccc3c(c1)OCO3)O2 | inactive
24 | CC(CN)(Cc1ccccc1Cl)C(=O)O (stereo not given) | inactive
25 | Cc1ccc2c(N)[nH]nc2n1 | inactive
26 | CC(=O)N[C@@H]1[C@@H](Oc2ccc(C(C)=O)cc2)O[C@H](CO)[C@H](O)[C@@H]1O | inactive
27 | C[C@H](CO)N1C[C@H](C)[C@H](CN(C)Cc2ccc3c(c2)OCO3)OCCCC[C@H](C)Oc2ccc(NC(=O)c3ccccc3)cc2C1=O | inactive
28 | COc1ccc(CN(C)C[C@H]2OCCCC[C@@H](C)Oc3ccc(NS(=O)(=O)c4ccc(OC)cc4)cc3C(=O)N([C@@H](C)CO)C[C@H]2C)cc1 | inactive
29 | C[C@@H]1CN([C@@H](C)CO)C(=O)CCCn2nncc2CO[C@@H]1CN(C)S(=O)(=O)c1ccc2c(c1)OCCCO2 | inactive
30 | Cc1noc(C)c1NC(=O)N(C)C[C@H]1OCCCC[C@H](C)Oc2ccc(NS(=O)(=O)c3ccccc3)cc2C(=O)N([C@@H](C)CO)C[C@H]1C | inactive
31 | COc1cccc(S(=O)(=O)N2C[C@@H](O)COC[C@@H]3O[C@@H](CC(=O)N4CCN(C)CC4)CC[C@H]32)c1 | inactive
32 | C[C@@H]1CCCCO[C@@H](CN(C)Cc2ccccc2)[C@@H](C)CN([C@H](C)CO)C(=O)c2cc(NC(=O)c3ccccc3)ccc2O1 | inactive
33 | C[C@H]1CN([C@@H](C)CO)S(=O)(=O)c2ccc(C#Cc3ccccc3F)cc2O[C@@H]1CN(C)C(=O)Cc1cccnc1 | inactive
34 | C[C@H]1CN([C@@H](C)CO)C(=O)c2cc(NS(=O)(=O)c3ccccc3)ccc2O[C@H]1CN(C)Cc1ccc(Oc2ccccc2)cc1 | inactive
35 | Cc1ccc(S(=O)(=O)Nc2cccc3c2O[C@H](CN(C)Cc2ccc(Oc4ccccc4)cc2)[C@@H](C)CN([C@@H](C)CO)C3=O)cc1 | inactive
36 | CC(C)(O)[C@H]1CC[C@@](C)([C@H]2[C@@H](O)C[C@@]3(C)[C@@H]4C[C@H](O[C@@H]5O[C@H](CO)[C@@H](O)[C@H](O)[C@H]5O)[C@H]5C(C)(C)[C@@H](O[C@@H]6OC[C@@H](O)[C@H](O)[C@H]6O)CC[C@@]56C[C@@]46CC[C@]23C)O1 | inactive
37 | Cc1ccc(S(=O)(=O)N(C)C[C@H]2Oc3ccc(NC(=O)CCN4CCOCC4)cc3CC(=O)N([C@H](C)CO)C[C@@H]2C)cc1 | inactive
38 | N[C@H](c1ccc2c(c1)OCCO2)c1ccco1 | inactive
39 | C[C@@H]1CN([C@H](C)CO)C(=O)c2cc(NC(=O)Nc3cccc4ccccc34)ccc2O[C@@H](C)CCCCO[C@@H]1CN(C)C(=O)NC1CCCCC1 | inactive
40 | C[C@@H]1CN([C@H](C)CO)C(=O)Cc2cc(NC(=O)Nc3ccc(F)cc3)ccc2O[C@H]1CN(C)Cc1ccc(Cl)c(Cl)c1 | active
